Reference: publication PMC4336329 (PLoS ONE, 2015)
Among all 310,000 compounds or so, about 2,200 (0.71%) showed an effect of 50% or more. Effects have a minus sign here. The list shows a part of the results.

Molecular target: human ether-à-go-go-related gene (hERG) potassium channel (human, UniProt Q12809)
Assay: primary screen, population patch clamp on CHO cells stably expressing hERG

Chain of human ether-à-go-go-related gene (hERG) potassium channel (Q12809 whole entry, looked up): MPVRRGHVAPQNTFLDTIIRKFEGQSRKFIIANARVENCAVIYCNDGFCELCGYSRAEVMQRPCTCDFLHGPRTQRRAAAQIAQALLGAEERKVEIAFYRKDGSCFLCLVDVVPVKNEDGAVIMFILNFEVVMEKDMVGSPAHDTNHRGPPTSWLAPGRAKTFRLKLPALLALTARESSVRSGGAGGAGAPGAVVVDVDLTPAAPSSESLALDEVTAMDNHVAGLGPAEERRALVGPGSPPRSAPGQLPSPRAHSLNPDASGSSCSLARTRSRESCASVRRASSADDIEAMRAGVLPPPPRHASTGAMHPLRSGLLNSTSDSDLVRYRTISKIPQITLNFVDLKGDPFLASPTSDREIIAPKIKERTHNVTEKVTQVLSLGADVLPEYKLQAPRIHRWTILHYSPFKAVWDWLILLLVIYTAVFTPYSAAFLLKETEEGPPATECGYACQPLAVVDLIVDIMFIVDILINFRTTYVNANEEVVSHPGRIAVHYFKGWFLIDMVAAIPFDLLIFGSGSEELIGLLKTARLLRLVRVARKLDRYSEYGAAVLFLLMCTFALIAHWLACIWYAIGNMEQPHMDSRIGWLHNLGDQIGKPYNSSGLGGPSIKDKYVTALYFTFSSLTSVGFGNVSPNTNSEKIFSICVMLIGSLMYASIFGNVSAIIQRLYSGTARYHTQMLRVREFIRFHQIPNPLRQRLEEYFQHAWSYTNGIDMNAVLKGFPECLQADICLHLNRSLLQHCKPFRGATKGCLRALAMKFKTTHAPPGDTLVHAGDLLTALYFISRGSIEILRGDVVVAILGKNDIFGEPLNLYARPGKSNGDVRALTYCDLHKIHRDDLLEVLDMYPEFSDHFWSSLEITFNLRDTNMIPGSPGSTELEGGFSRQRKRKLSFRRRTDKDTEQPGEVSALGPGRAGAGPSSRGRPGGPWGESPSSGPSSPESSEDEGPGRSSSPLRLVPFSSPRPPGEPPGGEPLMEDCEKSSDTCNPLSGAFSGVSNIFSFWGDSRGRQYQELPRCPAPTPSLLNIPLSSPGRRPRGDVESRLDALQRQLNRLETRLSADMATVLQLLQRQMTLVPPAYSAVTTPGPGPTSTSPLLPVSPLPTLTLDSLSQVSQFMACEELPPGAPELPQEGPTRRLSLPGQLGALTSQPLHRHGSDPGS

Row | SMILES | hERG current change (%, negative = inhibition) at 1uM
1 | Cc1c(C#N)c2ccccc2n1CC(=O)NC(C)c1ccccc1 (stereo not drawn) | 4.94%
2 | CCOC(=O)N1CCN(C(=O)C2CCN(Cc3ccc(OC)cc3OC)CC2)CC1.O=C(O)C(=O)O | -2.07%
3 | Cc1ccc2nc(SCC(=O)N3CCCCCC3)nc(=O)n2c1 | 9.96%
4 | C=CCn1c(COc2ccccc2C)nnc1SCC(=O)O | 16.9%
5 | CCSC(=O)CCCCCCCCCCCO | 5.67%
6 | CC(=O)N1c2ccc(S(=O)(=O)NCCC(=O)NCc3ccc(N(C)C)cc3)cc2CC1C (stereo not drawn) | 12.6%
7 | O=C(COc1nnc2ccccn12)N1CCN(S(=O)(=O)c2ccccc2)CC1 | 14.7%
8 | O=C1Nc2ccc(Cl)cc2C12Nc1ccccc1-c1nnc(SCc3ccccc3F)nc1O2 (stereo not drawn) | 4.35%
9 | COc1ccc(CCNC(=O)c2cc(C)oc2C)cc1OC | 9.85%
10 | CCN(CC)S(=O)(=O)c1ccc(NC(=O)c2ccc(N(C)S(C)(=O)=O)cc2)cc1 | 8.93%
11 | CSCCC(NC(=O)COc1ccccc1)C(=O)N1CCN(c2ccccc2)CC1 (stereo not drawn) | -1.18%
12 | CC(=O)O[C@H]1CC[C@@]2(C)C(=CC[C@H]3[C@@H]4CC[C@H](C5(C)OCCO5)[C@@]4(C)CC[C@@H]32)C1 | 18.1%
13 | CC(=O)N1CCc2cc(S(=O)(=O)N3CCCCCC3)ccc21 | 10.6%
14 | O=[N+]([O-])c1ccc(S(=O)(=O)N2CCN=C2SCc2ccc(F)cc2)cc1 | 3.19%
15 | COc1ccc2[nH]c(C)c(C(=O)CN3CCN(C(=O)c4ccco4)CC3)c2c1 | -7.3%
16 | Cc1sc2c(c1C)C(=O)NC(c1ccccc1F)N2 (stereo not drawn) | 13.6%
17 | Cc1ccc(CNC(=O)c2ccc(N3CCC4(CC3)CC(c3ccccc3)=NO4)c(NC(=O)c3cccc(C)c3)c2)cc1 | 0.306%
18 | O=C(NCc1ccc(F)cc1)c1ccc(Br)o1 | 1.43%
19 | CSC(=NC(C)c1ccccc1)NS(=O)(=O)c1cccs1 (stereo not drawn) | 5.75%
20 | CCOC(=O)c1cn2nc(-c3ccc(OC)cc3)cc2nc1C1CCN(C(=O)OC(C)(C)C)CC1 | 14.9%
21 | O=C(Nc1ccc(Cl)cc1)N1CCN(Cc2ccc3c(c2)OCO3)CC1 | -4.4%
22 | COC(=O)c1cc2c(N)c(C(=O)c3ccccc3)sc2nc1C(OC)OC | 8.89%
23 | Cc1nc2nc(SCC(=O)c3ccc([N+](=O)[O-])cc3)[nH]c2cc1Br | 3.41%

Row | SMILES | hERG current change (%, negative = inhibition) at 1uM
24 | CC1CCC(NC(=O)COC(=O)C2=NN(c3ccccc3)C(=O)CC2)CC1 (stereo not drawn) | 12.4%
25 | COc1ccc2cc3c(N)nn(C(=O)c4ccccc4[N+](=O)[O-])c3nc2c1 | -1.02%
26 | Cc1onc(-c2ccccc2)c1C(=O)N1CCN(S(=O)(=O)c2ccccc2C(F)(F)F)CC1 | 17.2%
27 | CC(=O)C1=C(O)C(=O)N(CC(=O)O)C1c1ccccc1Cl (stereo not drawn) | -2.8%
28 | Cc1ccc(C)c(C(=O)NCCN(C)C)c1 | 8.76%
29 | COCCN1CCN(Cc2cn(C)nc2-c2ccc(Oc3ccccc3)cc2)CC1 | -5.11%
30 | CC(=O)N1CCN(c2ccc(NC(=O)c3ccc4c(c3)OCCO4)cc2Cl)CC1 | -26.7%
31 | CS(=O)(=O)N1CCC(C(=O)Nc2ccc(F)cc2F)CC1 | 11.3%
32 | CS(=O)(=O)c1ccc(-c2cccc(NC(=O)COc3ccccc3)c2)nn1 | 1.8%
33 | O=[N+]([O-])c1cccc(C(=S)N2CCN(c3ccccc3)CC2)c1 | 4.86%
34 | COc1ccc(C(=O)N2CCN(c3ccc(C)cc3)CC2)cc1OC | -3.98%
35 | c1ccc(C(c2ccccc2)N2CCN(c3ccc4ccccc4n3)CC2)cc1 | 3.43%
36 | Cc1sc2ncnc(N3CCN(C(=O)c4ccco4)CC3)c2c1C | -13.1%
37 | COc1ccc(C(=O)NC(C(=O)NCC2CCCO2)C(C)C)cc1 (stereo not drawn) | 12.6%
38 | COc1ccc(CN2CCN(CCc3ccccc3)C(CCO)C2)cc1Cn1cncn1 (stereo not drawn) | -16%
39 | Cc1cc(C)n(/C(=C\N(C)C)C(=O)c2cccc([N+](=O)[O-])c2)n1 | 14.7%
40 | Cc1cccc(C)c1OCC(=O)NNC(=O)CCNC(=O)c1ccco1 | 12.8%
41 | O=C1c2ccccc2C(O)N1Cc1ccccc1Cl (stereo not drawn) | 1.46%
42 | S=C=Nc1ccccn1 | -4.99%
43 | COc1ccc2[nH]c3c(=O)n(CCN4CCOCC4)cnc3c2c1 | 9.44%
44 | CC(C)=CCOc1c2ccoc2cc2oc(=O)ccc12 | 10.6%
45 | COc1cc(-c2nc3sc(C)c(C)c3c(=O)o2)cc(OC)c1OC | 18.2%
46 | CCN(c1ccccc1)S(=O)(=O)c1ccc(Cl)c(NC(=O)CSc2nncn2C)c1 | 6.62%

Row | SMILES | hERG current change (%, negative = inhibition) at 1uM
47 | CN1CCN(/N=C/c2ccc(C#N)cc2)CC1.Cl | -13%
48 | Cc1ccc(-n2ncc3c(SCc4ccccn4)ncnc32)c(C)c1 | 12.5%
49 | Cc1cc(Cl)ccc1NNC(N)=S | 9.61%
50 | CCCCOc1cc(C(=O)NCCN(CC)CC)c2ccccc2n1 | -38.5%
51 | O=C(/C=C/c1ccc(F)cc1)NCC1(c2ccccc2)CCOCC1 | -9.73%
52 | CCOCCCNc1nc2c([nH]1)c(=O)n(C)c(=O)n2C | 4.69%
53 | CC1=Nc2ccc(C)cc2N(Cc2ccccc2)C(=O)C1 | 7.75%
54 | CC12C(=O)N(c3ccc(C(=O)N4CCOCC4)cc3)C(=O)C1C1c3ccccc3C2c2ccccc21 (stereo not drawn) | 9.81%
55 | CS(=O)(=O)N(CCc1ccccc1)CC(=O)N1CCCC1 | 7.81%
56 | C/C(=N\OC(=O)c1ccc(Cl)cc1)c1nccs1 | 9.4%
57 | C=CCOc1ccccc1C1NC(=O)NC(C)=C1C(=O)NCc1ccccc1 (stereo not drawn) | -2.47%
58 | O=[N+]([O-])c1cc2c(cc1/C=N\NS(=O)(=O)c1ccccc1)OCO2 | 16.5%
59 | O=c1[nH]c2ccccc2c(O)c1-c1ccccc1 | 11.8%
60 | O=C(/C=C/NCc1cccnc1)C(F)(F)C(F)(F)F | 13.2%
61 | CCOc1ccc(-n2c(C)cc(/C=N/NC(=O)C(N)=O)c2C)cc1 | 10.3%
62 | COCC(C)n1c(C)cc(C(=O)CSc2nnc(Nc3ccccc3F)s2)c1C (stereo not drawn) | 6.24%
63 | Cc1cccc(C)c1NC(=O)C(=O)c1cn(C)c2ccccc12 | 12.5%
64 | COc1ccc(C(=O)NCCCNC(=O)c2ccc(C)nc2)cc1 | 21.9%
65 | O=C(CCNC(=O)c1ccc([N+](=O)[O-])cc1)NCc1ccco1 | 3.22%
66 | Cc1cc(OCC(=O)NCc2cccnc2)ccc1[N+](=O)[O-] | 13%
67 | CC(=O)Nc1ccc(S(=O)(=O)Oc2ccc(N3C(=O)C4CCCCC4C3=O)cc2)cc1 (stereo not drawn) | 15.5%
68 | CC1CCCC(NC(=O)CNC(=O)c2cccs2)C1C (stereo not drawn) | 14.8%
69 | COc1ccccc1NC(=O)Nc1cc(NC(=O)Nc2ccccc2OC)c(C)nc1C | 14.2%

Row | SMILES | hERG current change (%, negative = inhibition) at 1uM
70 | Cc1ccc(-c2nn(-c3ccccc3)cc2C2CC(c3cccs3)=NN2C(=O)CCC(=O)O)cc1 (stereo not drawn) | 15%
71 | Cc1ccccc1OCCCCCCN1CCNCC1.O=C(O)C(=O)O | 11.7%
72 | COc1ccc(C(=O)N2CCC(CCC(=O)Nc3cccc(C)c3)CC2)cc1 | -9.57%
73 | O=C(COC(=O)c1cccc(Oc2ccccc2)c1)NCc1ccco1 | 8.45%
74 | CS(=O)(=O)N(CC(=O)N1CCC(C(N)=O)CC1)Cc1ccc(Cl)c(Cl)c1 | 3.15%
75 | Cc1ccsc1/C=N/NC(=O)c1ccc(Cn2cc(Br)cn2)o1 | 1.2%
76 | Cc1cccc(-c2nnc(SCC#N)n2-c2ccccc2)c1 | -12.1%
77 | CCCCCc1nnc(NC(=O)c2ccc(N3CCCC3=O)cc2)s1 | 14.3%
78 | O=C(NNC(=O)c1ccccc1Cl)c1ccccc1Cl | 10%
79 | CC1CCCCC1NC(=O)COC(=O)c1ccc2ncsc2c1 (stereo not drawn) | 11.4%
80 | Cc1csc2ncnc(NNC(=O)c3ccc(Cl)cc3)c12 | 6.19%
81 | CSc1ccc(S(=O)(=O)NCC(=O)OCC(=O)NCCc2ccccc2)cc1[N+](=O)[O-] | 20%
82 | O=C(CCc1ccccc1)NNC(=O)C12CC3CC(CC(C3)C1)C2 | -7.42%
83 | CSc1ccccc1C(=O)OCC(=O)NC1CCS(=O)(=O)C1 (stereo not drawn) | 5.16%
84 | CCN(CC(=O)Nc1ccc(OC)cc1)C(=O)Cc1cccs1 | 10%
85 | CCC12CN3CCN(CC(C3)/C1=N/NC(N)=O)C2 | 16.4%
86 | Cn1ncc(Cl)c1C(=O)NC1C2CC3CC(C2)CC1C3 (stereo not drawn) | 9.35%
87 | CC(NC(=O)C(C)(C)C)c1nc2ccccc2n1C (stereo not drawn) | 11.7%
88 | CC(C)CN(C(=O)COC(=O)CCCc1nc2ccccc2s1)c1c(N)n(Cc2ccccc2)c(=O)[nH]c1=O | 3.55%
89 | Oc1c(C=Nc2ccccc2Cl)[nH]c2ccccc12 | 12.6%
90 | Cc1c(C(=O)OCC(=O)NCc2ccc3c(c2)OCO3)cccc1[N+](=O)[O-] | 1.66%
